Experimental data taken from publication PMC4336329 (PLoS ONE, 2015).
Out of some 310,000 compounds screened, about 14,000 (4.5%) showed an effect of 50% or more. The effect is printed as a negative number. This is one part of the list.
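Further: peak tail current of the secondary pulse compared with the same well before compound.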

These compounds were tested against human ether-à-go-go-related gene (hERG) potassium channel (human, UniProt Q12809) (assay: primary screen, population patch clamp on CHO cells stably expressing hERG).
human ether-à-go-go-related gene (hERG) potassium channel, sequence (Q12809 whole entry, looked up): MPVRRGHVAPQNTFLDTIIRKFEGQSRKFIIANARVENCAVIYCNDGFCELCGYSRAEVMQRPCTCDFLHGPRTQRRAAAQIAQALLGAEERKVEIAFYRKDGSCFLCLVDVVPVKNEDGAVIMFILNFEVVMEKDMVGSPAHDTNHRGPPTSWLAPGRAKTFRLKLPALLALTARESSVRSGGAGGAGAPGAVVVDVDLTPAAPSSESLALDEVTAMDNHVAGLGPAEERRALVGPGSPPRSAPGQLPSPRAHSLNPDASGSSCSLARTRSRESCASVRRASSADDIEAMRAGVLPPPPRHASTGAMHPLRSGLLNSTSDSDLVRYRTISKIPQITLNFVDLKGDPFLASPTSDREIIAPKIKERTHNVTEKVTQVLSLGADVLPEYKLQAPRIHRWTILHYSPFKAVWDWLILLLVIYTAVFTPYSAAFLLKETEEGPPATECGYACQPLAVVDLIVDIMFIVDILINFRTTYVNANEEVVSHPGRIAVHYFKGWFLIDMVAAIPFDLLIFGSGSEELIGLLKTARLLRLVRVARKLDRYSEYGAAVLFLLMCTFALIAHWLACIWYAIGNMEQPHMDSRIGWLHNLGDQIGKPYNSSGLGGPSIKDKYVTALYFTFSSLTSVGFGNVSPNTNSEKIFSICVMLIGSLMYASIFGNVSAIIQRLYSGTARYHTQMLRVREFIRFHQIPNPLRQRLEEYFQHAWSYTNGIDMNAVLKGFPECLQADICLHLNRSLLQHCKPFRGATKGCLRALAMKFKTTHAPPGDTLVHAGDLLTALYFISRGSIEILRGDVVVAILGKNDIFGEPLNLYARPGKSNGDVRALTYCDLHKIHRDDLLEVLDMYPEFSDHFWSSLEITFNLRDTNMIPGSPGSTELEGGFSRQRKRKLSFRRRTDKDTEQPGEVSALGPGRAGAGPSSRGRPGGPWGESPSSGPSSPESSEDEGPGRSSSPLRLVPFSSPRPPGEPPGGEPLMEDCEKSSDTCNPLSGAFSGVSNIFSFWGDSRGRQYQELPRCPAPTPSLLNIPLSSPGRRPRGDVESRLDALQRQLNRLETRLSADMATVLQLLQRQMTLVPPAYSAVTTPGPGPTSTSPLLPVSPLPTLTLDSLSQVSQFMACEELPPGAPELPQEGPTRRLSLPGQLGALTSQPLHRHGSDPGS
For `CC(C)CC(=O)Nc1ccnn1C1CCN(C(=O)c2ccc(F)cc2Cl)CC1`, the “hERG current change (%, negative = inhibition) at 10uM” value was 3.38%. In the case of `O=[N+]([O-])c1ccc(NC(=S)N2CCN(c3ccccc3)CC2)cc1`, the “hERG current change (%, negative = inhibition) at 10uM” value is reported as -11.4%. `Cc1ccc(F)cc1NC(=O)CN1CCN(Cc2ccccc2)CC1` was tested, and the “hERG current change (%, negative = inhibition) at 10uM” value was -63.2%. `CCC(=NCC1CCCO1)c1c(O)n(-c2ccc(OC)cc2)c(=O)[nH]c1=O` (stereo not shown) was tested, and the “hERG current change (%, negative = inhibition) at 10uM” value was 18.4%. In the case of `Cc1ccc(O)c(CNCCNCc2cc(C)ccc2O)c1`, the “hERG current change (%, negative = inhibition) at 10uM” value is reported as -11.9%. For `CC1CCN(S(=O)(=O)c2ccc(Br)s2)CC1`, the “hERG current change (%, negative = inhibition) at 10uM” value was -17.3%. In the case of `C=CCSc1ccccc1C(=O)Nc1ncn[nH]1`, the “hERG current change (%, negative = inhibition) at 10uM” value is reported as 15.5%. With `N#C/C(=C\c1ccncc1)C(N)=O` the “hERG current change (%, negative = inhibition) at 10uM” value was 10.3%. For `CC(C)c1ccc(NC(=O)C2C3C=CC4(O3)C2C(=O)N(CCCN2CCOCC2)C4C(=O)NC2CCCCC2)cc1` (stereo not shown), the “hERG current change (%, negative = inhibition) at 10uM” value was 19.9%. For `CCN(CC(=O)Nc1cccc(OC)c1)C(=O)c1ccco1`, the “hERG current change (%, negative = inhibition) at 10uM” value was 22.6%. For `O=C(CSc1nnc(CCCN2C(=O)c3cccc4cccc(c34)C2=O)n1-c1ccccc1)N1CCN(CCO)CC1`, the “hERG current change (%, negative = inhibition) at 10uM” value was -13.5%. `CCCCN(CC)C(=O)C1CCCN(S(=O)(=O)c2cccc3nsnc23)C1` (stereo not shown) was tested, and the “hERG current change (%, negative = inhibition) at 10uM” value was 2.48%. `Cc1ccc(-c2nn(-c3ccccc3)cc2/C=C2\SC(=S)N(CC(=O)O)C2=O)cc1` was tested, and the “hERG current change (%, negative = inhibition) at 10uM” value was 1.27%. With `CCCC(=O)Nc1ccccc1NC(=O)c1ccc(OCC)c(OCC)c1` the “hERG current change (%, negative = inhibition) at 10uM” value was 8.15%. With `CCOP(=O)(OCC)C(NC(=O)c1ccc(OC)c(OC)c1)c1ccccc1` (stereo not shown) the “hERG current change (%, negative = inhibition) at 10uM” value was 9.71%. For `CCOC(=O)C1=C(CC)Nc2ccccc2N=C1NC(=O)c1oc2ccccc2c1C`, the “hERG current change (%, negative = inhibition) at 10uM” value was 12.6%. For `CC(C)CCOc1cccc(OCC(=O)Nc2ccncc2)c1`, the “hERG current change (%, negative = inhibition) at 10uM” value was 11.3%. For `CCOC(=O)c1nnn2c1nc(N(CC)CC)c1ccccc12`, the “hERG current change (%, negative = inhibition) at 10uM” value was -6.95%. With `CCCOc1ccc(/C=C/C(=O)Nc2ccc([N+](=O)[O-])cc2C)cc1` the “hERG current change (%, negative = inhibition) at 10uM” value was 23.3%. For `O=C(c1cccc(S(=O)(=O)N2CCOCC2)c1)N1CCN(c2ccc(F)cc2)CC1`, the “hERG current change (%, negative = inhibition) at 10uM” value was -33.6%. In the case of `C/C(N)=C(\C#N)C(=O)NCc1ccccn1`, the “hERG current change (%, negative = inhibition) at 10uM” value is reported as 10.1%. With `Cc1ccc(C(=O)NNC(=O)CSc2nnc3c(n2)[nH]c2ccc(C)cc23)cc1` the “hERG current change (%, negative = inhibition) at 10uM” value was 1.79%. With `CC(=O)NC(=O)c1cnn(-c2ccccc2)c1N` the “hERG current change (%, negative = inhibition) at 10uM” value was 9.47%. For `Nc1ccccc1Nc1c(F)c(F)nc(F)c1Cl`, the “hERG current change (%, negative = inhibition) at 10uM” value was 20.1%. With `CCOC(CCn1c(SCc2cccc([N+](=O)[O-])c2)nc2ccccc2c1=O)OCC` the “hERG current change (%, negative = inhibition) at 10uM” value was -14.6%. With `O=C(CSc1ccc(-c2ccc(Cl)cc2)nn1)Nc1ccc2c(c1)OCCO2` the “hERG current change (%, negative = inhibition) at 10uM” value was 21.6%. For `COC(=O)C1=C(C)N(CCCC(=O)O)C(=O)NC1c1ccccc1OS(=O)(=O)c1ccc([N+](=O)[O-])cc1` (stereo not shown), the “hERG current change (%, negative = inhibition) at 10uM” value was 7.31%. For `c1ccc2c(c1)nnn2-c1ncnc2sccc12`, the “hERG current change (%, negative = inhibition) at 10uM” value was 18.1%. With `C[C@@H]1NC(=O)[C@H](CCC(N)=O)NC(=O)c2cc([N+](=O)[O-])cc(I)c2NCCC[C@@H](C(N)=O)NC1=O` the “hERG current change (%, negative = inhibition) at 10uM” value was -8.81%. `Cc1ccc(/C=C2\SC(=S)N(C(Cc3ccccc3)C(=O)O)C2=O)cc1` (stereo not shown) was tested, and the “hERG current change (%, negative = inhibition) at 10uM” value was 14.7%. For `CCCOC(=O)C1=C(C)N(C)C(=O)NC1c1cc2c(cc1[N+](=O)[O-])OCO2` (stereo not shown), the “hERG current change (%, negative = inhibition) at 10uM” value was 12.2%. In the case of `Cc1ccc(NC(=O)c2ccc(Cl)c(NC(=O)c3cccs3)c2)cc1`, the “hERG current change (%, negative = inhibition) at 10uM” value is reported as -12.5%. In the case of `Cc1cccc(Cn2cc(C=O)c3ccccc32)c1`, the “hERG current change (%, negative = inhibition) at 10uM” value is reported as 12.2%. `Cc1ccc(-c2nc(N/N=C/c3ccccc3[N+](=O)[O-])c3ccccc3n2)cc1` was tested, and the “hERG current change (%, negative = inhibition) at 10uM” value was -2.26%. In the case of `CSCCC1(C(=O)O)NC(c2ccccc2O)C2C(=O)N(C(C)C)C(=O)C21` (stereo not shown), the “hERG current change (%, negative = inhibition) at 10uM” value is reported as 24.7%. `COc1ccc(C(=O)NN2C(=O)C3C(c4ccccc4)C=CC(c4ccccc4)C3C2=O)cc1` (stereo not shown) was tested, and the “hERG current change (%, negative = inhibition) at 10uM” value was -4.38%. With `Cc1nn(C)cc1C1C2=C(CC(C)(C)CC2=O)OC2=C1C(=O)CC(C)(C)C2` the “hERG current change (%, negative = inhibition) at 10uM” value was -31.5%. For `OCC[C@H]1C[C@H](O)[C@@H](O)[C@]2(Cc3ccccc3O2)O1`, the “hERG current change (%, negative = inhibition) at 10uM” value was -17.1%. `COc1ccc(C2C(C(=O)O)c3ccccc3C(=O)N2Cc2ccco2)cc1` (stereo not shown) was tested, and the “hERG current change (%, negative = inhibition) at 10uM” value was 12.2%. `CCCCNc1nc2c(c(=O)[nH]c(=O)n2C)n1CCOc1ccccc1` was tested, and the “hERG current change (%, negative = inhibition) at 10uM” value was 3.6%. For `O=C(NCc1ccccc1)C(c1ccncc1)N(C(=O)c1ccccn1)c1ccccc1` (stereo not shown), the “hERG current change (%, negative = inhibition) at 10uM” value was 7.19%. `COc1ccc2ccc(O)c(CN3CC=C(c4ccccc4)CC3)c2c1` was tested, and the “hERG current change (%, negative = inhibition) at 10uM” value was 39.4%. For `Br.Cc1ccc(C)c(C2=CSC3=NCCN23)c1`, the “hERG current change (%, negative = inhibition) at 10uM” value was -14.1%.
